# The other results are listed elsewhere or left out.
# B1: PX14375l-pdi-526-25-526 (Parabacteroides distasonis) (protein)
# chain: DEEPKSTLTDVAYYKTQSQMESNVNYLYRTGAIGSYVDFGSAYIGPFASIQEELTGYFSNSYEGQEIVCRYTRELTRQQNTMQLASKMDKVWDDCYRGINVANGAIKHMPEVPMDQATADRLTAEAKFFRAFNYFYLVKTFGAVPFYTDPYELAENMELPRTETSTIYNQIESDLKDAMNVLPEATFAANGHRITKYVAAMTLTDVYMYQHKYAEAAETVRIVVNSNHKLTTNDDLAMNSAFNKLRSTDDLDEAIYAYEYDNQISPSNWLPTYAFDGDASSNGLFGTYAITQKVHGPNDRYLNIYESNDLRRQPNQFYHWTYTNPKTGKVWNSVGNAACCWYYYDEDALLTTGRGTKDWNVYRYAEALLDAAESIAQSTGVTAEAAGYLAQVKARANMEGKTAAEIASSLQSMGKQAFIEECWTERLRELPLEFKMWDMCVRTGMFPNISETTPGQVTYIPLVGAKNASGATIKESDLLWPLSVNEIQRNPSLTQNEGYSAK
# Assays:
# Assay in all cases: glycan array binding signal (z-score within array); higher = stronger binding
# Settings in all cases: glycan notation: IUPAC condensed, linker removed
# [1] = molecular target: Gal(b1-3)GalNAc(b1-3)Gal(a1-4)Gal(b1-4)Glc
# Procedure, shortened: (§1)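 Arrays were curated from the Consortium for Functional Glycomics database, 3228 in total, and kept only where the protein sequence was available. Binding is expressed as a within-array Z-score. This score was averaged across arrays of the same protein sequence at different concentrations or buffers and across linkers, and negative values can be read as non-binding.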
# [2] = molecular target: Gal(b1-3)GalNAc(b1-4)Gal(b1-4)Glc
# Procedure, shortened: as §1
# [3] = molecular target: Gal(b1-3)GalNAc(b1-4)[Neu5Ac(a2-3)]Gal(b1-4)Glc
# Procedure, shortened: as §1
# [4] = molecular target: Gal(b1-3)GlcNAc
# Procedure, shortened: as §1
# [5] = molecular target: Gal(b1-3)GlcNAc(a1-3)Gal(b1-4)GlcNAc
# Procedure, shortened: as §1
# [6] = molecular target: Gal(b1-3)GlcNAc(a1-6)Gal(b1-4)GlcNAc
# Procedure, shortened: as §1
# [7] = molecular target: Gal(b1-3)GlcNAc(b1-2)Man
# Procedure, shortened: as §1
# [8] = molecular target: Gal(b1-3)GlcNAc(b1-2)Man(a1-3)[Gal(b1-3)GlcNAc(b1-2)Man(a1-6)]Man(b1-4)GlcNAc(b1-4)GlcNAc
# Procedure, shortened: as §1
# [9] = molecular target: Gal(b1-3)GlcNAc(b1-2)Man(a1-3)[Gal(b1-3)GlcNAc(b1-2)Man(a1-6)]Man(b1-4)GlcNAc(b1-4)[Fuc(a1-6)]GlcNAc
# Procedure, shortened: as §1
# [10] = molecular target: Gal(b1-3)GlcNAc(b1-2)Man(a1-3)[GlcNAc(b1-4)][Gal(b1-3)GlcNAc(b1-2)Man(a1-6)]Man(b1-4)GlcNAc(b1-4)GlcNAc
# Procedure, shortened: as §1
# [11] = molecular target: Gal(b1-3)GlcNAc(b1-2)[Gal(b1-3)GlcNAc(b1-6)]Man(a1-6)[Gal(b1-3)GlcNAc(b1-2)Man(a1-3)]Man(b1-4)GlcNAc(b1-4)GlcNAc
# Procedure, shortened: as §1
# [12] = molecular target: Gal(b1-3)GlcNAc(b1-3)Gal(b1-3)GlcNAc
# Procedure, shortened: as §1
# [13] = molecular target: Gal(b1-3)GlcNAc(b1-3)Gal(b1-4)Glc
# Procedure, shortened: as §1
# [14] = molecular target: Gal(b1-3)GlcNAc(b1-3)Gal(b1-4)GlcNAc
# Procedure, shortened: as §1
# [15] = molecular target: Gal(b1-3)GlcNAc(b1-3)Gal(b1-4)GlcNAc(b1-2)Man(a1-3)[Gal(b1-3)GlcNAc(b1-3)Gal(b1-4)GlcNAc(b1-2)Man(a1-6)]Man(b1-4)GlcNAc(b1-4)GlcNAc
# Procedure, shortened: as §1
# [16] = molecular target: Gal(b1-3)GlcNAc(b1-3)Gal(b1-4)GlcNAc(b1-2)[Gal(b1-3)GlcNAc(b1-3)Gal(b1-4)GlcNAc(b1-6)]Man(a1-6)[Gal(b1-3)GlcNAc(b1-3)Gal(b1-4)GlcNAc(b1-2)Man(a1-3)]Man(b1-4)GlcNAc(b1-4)[Fuc(a1-6)]GlcNAc
# Procedure, shortened: as §1
# [17] = molecular target: Gal(b1-3)GlcNAc(b1-3)Gal(b1-4)GlcNAc(b1-3)Gal(b1-4)GlcNAc(b1-2)[Gal(b1-3)GlcNAc(b1-3)Gal(b1-4)GlcNAc(b1-3)Gal(b1-4)GlcNAc(b1-6)]Man(a1-6)[Gal(b1-3)GlcNAc(b1-3)Gal(b1-4)GlcNAc(b1-3)Gal(b1-4)GlcNAc(b1-2)Man(a1-3)]Man(b1-4)GlcNAc(b1-4)[Fuc(a1-6)]GlcNAc
# Procedure, shortened: as §1
# [18] = molecular target: Gal(b1-3)GlcNAc(b1-3)Gal(b1-4)GlcNAc(b1-6)[Gal(b1-3)GlcNAc(b1-3)]Gal(b1-4)Glc
# Procedure, shortened: as §1
# [19] = molecular target: Gal(b1-3)GlcNAc(b1-3)Gal(b1-4)[Fuc(a1-3)]GlcNAc
# Procedure, shortened: as §1
# [20] = molecular target: Gal(b1-3)GlcNAc(b1-3)Gal(b1-4)[Fuc(a1-3)]GlcNAc(b1-6)[Gal(b1-3)GlcNAc(b1-3)]Gal(b1-4)Glc
# Procedure, shortened: as §1
# [21] = molecular target: Gal(b1-3)GlcNAc(b1-3)GalNAc
# Procedure, shortened: as §1
# [22] = molecular target: Gal(b1-3)GlcNAc(b1-6)Gal(b1-4)GlcNAc
# Procedure, shortened: as §1
# [23] = molecular target: Gal(b1-3)GlcNAc(b1-6)GalNAc
# Procedure, shortened: as §1
# [24] = molecular target: Gal(b1-3)GlcNAc(b1-6)[Gal(b1-3)]GalNAc
# Procedure, shortened: as §1
# [25] = molecular target: Gal(b1-3)GlcNAc6S
# Procedure, shortened: as §1
# [26] = molecular target: Gal(b1-3)[Fuc(a1-4)]GlcNAc
# Procedure, shortened: as §1
# [27] = molecular target: Gal(b1-3)[Fuc(a1-4)]GlcNAc(b1-2)Man
# Procedure, shortened: as §1
# [28] = molecular target: Gal(b1-3)[Fuc(a1-4)]GlcNAc(b1-2)Man(a1-3)[Gal(b1-3)[Fuc(a1-4)]GlcNAc(b1-2)Man(a1-6)]Man(b1-4)GlcNAc(b1-4)[Fuc(a1-6)]GlcNAc
# Procedure, shortened: as §1
# [29] = molecular target: Gal(b1-3)[Fuc(a1-4)]GlcNAc(b1-3)Gal(b1-3)[Fuc(a1-4)]GlcNAc
# Procedure, shortened: as §1
# [30] = molecular target: Gal(b1-3)[Fuc(a1-4)]GlcNAc(b1-3)Gal(b1-4)[Fuc(a1-3)]GlcNAc
# Procedure, shortened: as §1
# [31] = molecular target: Gal(b1-3)[Fuc(a1-4)]GlcNAc(b1-6)GalNAc
# Procedure, shortened: as §1
# [32] = molecular target: Gal(b1-3)[GlcNAc(b1-6)]GalNAc
# Procedure, shortened: as §1
# [33] = molecular target: Gal(b1-3)[Neu5Ac(a2-6)]GalNAc
# Procedure, shortened: as §1
# [34] = molecular target: Gal(b1-3)[Neu5Ac(a2-6)]GlcNAc(b1-4)Gal(b1-4)Glc
# Procedure, shortened: as §1
# [35] = molecular target: Gal(b1-3)[Neu5Ac(b2-6)]GalNAc
# Procedure, shortened: as §1
# [36] = molecular target: Gal(b1-4)Gal
# Procedure, shortened: as §1
# [37] = molecular target: Gal(b1-4)GalNAc(a1-3)[Fuc(a1-2)]Gal(b1-4)GlcNAc
# Procedure, shortened: as §1
# [38] = molecular target: Gal(b1-4)GalNAc(b1-3)[Fuc(a1-2)]Gal(b1-4)GlcNAc
# Procedure, shortened: as §1
binder,measurement,setting,value
B1,glycan array binding signal (z-score),[1],0.106
same,glycan array binding signal (z-score),[2],0.003
same,glycan array binding signal (z-score),[3],-0.143
same,glycan array binding signal (z-score),[4],-0.319
same,glycan array binding signal (z-score),[5],-0.152
same,glycan array binding signal (z-score),[6],-0.286
same,glycan array binding signal (z-score),[7],-0.206
same,glycan array binding signal (z-score),[8],0.136
same,glycan array binding signal (z-score),[9],-0.259
same,glycan array binding signal (z-score),[10],0.085
same,glycan array binding signal (z-score),[11],0.464
same,glycan array binding signal (z-score),[12],-0.192
same,glycan array binding signal (z-score),[13],0.08
same,glycan array binding signal (z-score),[14],-0.31
same,glycan array binding signal (z-score),[15],0.22
same,glycan array binding signal (z-score),[16],1.79
same,glycan array binding signal (z-score),[17],8.4
same,glycan array binding signal (z-score),[18],-0.181
same,glycan array binding signal (z-score),[19],-0.212
same,glycan array binding signal (z-score),[20],-0.125
same,glycan array binding signal (z-score),[21],-0.323
same,glycan array binding signal (z-score),[22],0.048
same,glycan array binding signal (z-score),[23],-0.012
same,glycan array binding signal (z-score),[24],-0.174
same,glycan array binding signal (z-score),[25],-0.287
same,glycan array binding signal (z-score),[26],-0.263
same,glycan array binding signal (z-score),[27],-0.015
same,glycan array binding signal (z-score),[28],-0.079
same,glycan array binding signal (z-score),[29],-0.258
same,glycan array binding signal (z-score),[30],-0.475
same,glycan array binding signal (z-score),[31],-0.037
same,glycan array binding signal (z-score),[32],-0.18
same,glycan array binding signal (z-score),[33],-0.246
same,glycan array binding signal (z-score),[34],-0.125
same,glycan array binding signal (z-score),[35],-0.364
same,glycan array binding signal (z-score),[36],-0.301
same,glycan array binding signal (z-score),[37],-0.264
same,glycan array binding signal (z-score),[38],-0.426

# — the supplement of paper PMC8728848
